Article PMC12765065
No constants are given. Whether binding was seen depends on the method and setting. In cells and extracts the contact can be indirect. Some entries that bind do so weakly or less than the wild type. For some assays here: Where a sequence is shown, tags or fusion partners need not be part of it. One block for each substance: values may come before it.

The chains behind the UniProt entries cited, without tags or fusion partners.
UniProt P08151: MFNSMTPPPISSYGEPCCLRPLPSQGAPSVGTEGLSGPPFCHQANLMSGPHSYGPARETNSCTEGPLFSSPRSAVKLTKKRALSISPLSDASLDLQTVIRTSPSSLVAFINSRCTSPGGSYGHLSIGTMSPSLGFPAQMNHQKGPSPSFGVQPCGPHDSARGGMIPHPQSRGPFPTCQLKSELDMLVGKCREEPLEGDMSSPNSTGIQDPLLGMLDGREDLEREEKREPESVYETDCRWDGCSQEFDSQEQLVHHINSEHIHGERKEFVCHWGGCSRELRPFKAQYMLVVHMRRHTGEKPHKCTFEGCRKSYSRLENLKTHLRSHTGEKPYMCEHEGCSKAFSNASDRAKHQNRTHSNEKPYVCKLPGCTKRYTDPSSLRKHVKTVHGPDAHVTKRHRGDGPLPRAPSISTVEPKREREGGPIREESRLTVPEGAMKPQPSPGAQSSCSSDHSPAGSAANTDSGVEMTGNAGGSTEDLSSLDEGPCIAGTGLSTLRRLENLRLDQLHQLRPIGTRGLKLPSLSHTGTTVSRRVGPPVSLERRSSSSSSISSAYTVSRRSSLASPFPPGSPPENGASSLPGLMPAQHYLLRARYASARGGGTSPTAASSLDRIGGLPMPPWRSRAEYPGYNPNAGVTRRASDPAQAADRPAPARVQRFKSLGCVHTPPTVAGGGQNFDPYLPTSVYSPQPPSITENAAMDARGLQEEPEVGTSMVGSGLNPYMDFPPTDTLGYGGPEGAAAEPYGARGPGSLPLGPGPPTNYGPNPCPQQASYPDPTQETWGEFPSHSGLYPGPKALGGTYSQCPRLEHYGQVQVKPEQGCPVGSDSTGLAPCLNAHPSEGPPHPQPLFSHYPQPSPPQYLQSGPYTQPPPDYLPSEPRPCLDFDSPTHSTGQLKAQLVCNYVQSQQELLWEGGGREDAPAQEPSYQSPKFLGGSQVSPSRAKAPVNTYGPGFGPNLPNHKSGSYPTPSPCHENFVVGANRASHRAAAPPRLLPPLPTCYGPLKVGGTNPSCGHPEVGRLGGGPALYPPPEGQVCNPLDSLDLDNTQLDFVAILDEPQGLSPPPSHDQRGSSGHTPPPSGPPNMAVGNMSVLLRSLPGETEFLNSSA
UniProt P04406: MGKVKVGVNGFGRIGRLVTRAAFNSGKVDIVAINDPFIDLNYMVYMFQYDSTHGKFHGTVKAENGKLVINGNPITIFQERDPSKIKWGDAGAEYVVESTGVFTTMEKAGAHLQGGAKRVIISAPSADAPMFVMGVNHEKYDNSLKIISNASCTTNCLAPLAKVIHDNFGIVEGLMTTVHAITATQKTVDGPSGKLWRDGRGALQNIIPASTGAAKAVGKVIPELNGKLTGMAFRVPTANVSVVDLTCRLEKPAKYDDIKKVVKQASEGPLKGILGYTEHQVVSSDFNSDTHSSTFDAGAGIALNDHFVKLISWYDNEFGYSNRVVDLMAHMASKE
UniProt Q14974: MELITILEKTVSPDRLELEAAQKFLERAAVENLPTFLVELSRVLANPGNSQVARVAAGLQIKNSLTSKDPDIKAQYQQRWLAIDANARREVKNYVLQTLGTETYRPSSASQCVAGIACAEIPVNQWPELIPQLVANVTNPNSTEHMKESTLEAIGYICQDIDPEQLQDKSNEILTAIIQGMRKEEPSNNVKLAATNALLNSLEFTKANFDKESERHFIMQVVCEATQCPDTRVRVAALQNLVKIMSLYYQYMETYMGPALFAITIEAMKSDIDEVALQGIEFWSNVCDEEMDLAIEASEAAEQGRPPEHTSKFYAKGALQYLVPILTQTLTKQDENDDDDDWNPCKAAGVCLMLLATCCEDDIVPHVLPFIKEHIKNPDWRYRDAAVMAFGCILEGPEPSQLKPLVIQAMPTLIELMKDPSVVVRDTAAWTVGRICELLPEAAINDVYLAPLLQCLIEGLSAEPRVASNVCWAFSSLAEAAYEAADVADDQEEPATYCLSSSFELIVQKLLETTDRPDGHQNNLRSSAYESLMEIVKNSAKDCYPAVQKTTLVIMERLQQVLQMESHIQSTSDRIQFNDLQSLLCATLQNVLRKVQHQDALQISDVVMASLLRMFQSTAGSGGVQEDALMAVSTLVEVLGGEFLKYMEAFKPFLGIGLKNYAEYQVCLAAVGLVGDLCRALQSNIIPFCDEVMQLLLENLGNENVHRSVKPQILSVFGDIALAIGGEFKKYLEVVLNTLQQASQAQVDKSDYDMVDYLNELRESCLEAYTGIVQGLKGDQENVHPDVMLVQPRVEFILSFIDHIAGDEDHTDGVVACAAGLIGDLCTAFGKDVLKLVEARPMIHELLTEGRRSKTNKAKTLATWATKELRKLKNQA

How the values were obtained:
[1] = molecular target: T1, VAV1 (endogenous) (human (endogenous in MIA PaCa2 and Capan-2)) (UniProt P15498); test: co-IP; endogenous proteins, Capan-2 cells (4-5 x 10^6); IP with 2 μg anti-VAV1 or normal rabbit IgG; blots with anti-GLI1 and anti-VAV1
T1 sequence: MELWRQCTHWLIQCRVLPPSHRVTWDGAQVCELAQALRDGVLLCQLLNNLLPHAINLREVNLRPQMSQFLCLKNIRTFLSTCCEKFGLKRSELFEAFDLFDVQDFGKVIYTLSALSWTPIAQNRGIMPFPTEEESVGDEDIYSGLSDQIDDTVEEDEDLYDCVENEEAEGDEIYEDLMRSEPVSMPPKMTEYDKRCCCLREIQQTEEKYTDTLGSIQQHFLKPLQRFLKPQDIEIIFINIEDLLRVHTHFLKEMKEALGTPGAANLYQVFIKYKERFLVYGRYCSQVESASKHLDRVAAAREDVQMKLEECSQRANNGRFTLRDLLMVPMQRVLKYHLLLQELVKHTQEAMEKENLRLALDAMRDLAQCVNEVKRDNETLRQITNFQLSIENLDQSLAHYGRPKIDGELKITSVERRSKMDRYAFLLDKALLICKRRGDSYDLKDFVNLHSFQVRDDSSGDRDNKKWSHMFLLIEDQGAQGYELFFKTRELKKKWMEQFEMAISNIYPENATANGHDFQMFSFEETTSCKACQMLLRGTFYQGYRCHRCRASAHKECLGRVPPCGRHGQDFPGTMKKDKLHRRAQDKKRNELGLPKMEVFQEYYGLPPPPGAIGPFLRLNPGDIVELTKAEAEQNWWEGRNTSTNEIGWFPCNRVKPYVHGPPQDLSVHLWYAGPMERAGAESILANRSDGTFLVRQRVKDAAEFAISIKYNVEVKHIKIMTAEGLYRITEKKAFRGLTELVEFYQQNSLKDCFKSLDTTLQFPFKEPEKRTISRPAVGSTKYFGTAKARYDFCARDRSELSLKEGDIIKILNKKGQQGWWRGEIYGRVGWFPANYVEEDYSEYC

[2] = molecular target: T1, VAV1 (endogenous) (human (endogenous in MIA PaCa2 and Capan-2)); test: proximity ligation; endogenous proteins in fixed, permeabilised MIA PaCa2 cells; Duolink PLA, mouse anti-VAV1 and rabbit anti-GLI1; amplification 180 min; foci per nucleus counted
[3] = molecular target: T1, VAV1 (endogenous) (human (endogenous in MIA PaCa2 and Capan-2)); test: proximity ligation; negative control in fixed, permeabilised MIA PaCa2 cells; Duolink PLA, mouse anti-VAV1 and rabbit anti-GAPDH; amplification 60 min
[4] = molecular target: T2, FLAG-tagged WT VAV1 (human) (UniProt P15498); test: co-IP; PANC1 cells (2 x 10^6) overexpressing FLAG-tagged VAV1-WT or VAV1-ΔNLS1, 24 h after transfection; IP with 0.05 μg anti-HA (so in the source) or normal mouse IgG; blots with anti-VAV1 and anti-IMPORTIN β1 (endogenous)
T2 sequence: T1 sequence

[5] = molecular target: T3, HA-tagged VAV1-WT (human) (UniProt P15498); test: co-IP; PANC1 cells (2 x 10^6) transfected with VAV1-HA and GLI1-3xFLAG; IP with 2 μg anti-GLI1 or 0.05 μg anti-HA; blots with anti-HA and anti-GLI1
T3 sequence: T1 sequence

- binding [1]: binds
- binding [2]: binds
Substance: GLI1 (endogenous) (from UniProt P08151 1-1106)

- binding [3]: no binding
Substance: GAPDH (from UniProt P04406 1-335)

- binding [4]: binds
Substance: IMPORTIN β1 (from UniProt Q14974 1-876)

- binding [5]: binds
Substance: FLAG-tagged GLI1 (from UniProt P08151 1-1106)
